Laboratory results published in patent publication US20130337564A1, “Treatment of Pluripotent Cells” (Janssen Biotech, Inc., priority 2012, published 2013).
The name of at least one read-out is uncertain.

Tested on: human embryonic stem cells (H9 line)
Experiment: High content screening assay: cell number (proliferative response)
Type: cell-based
Conditions: normalised to Wnt 3a/AA control
Method in brief: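 H9 hESCs on MATRIGEL treated days 1-2 with 10 μM compound in DMEM:F12, 0.5% FCS, 100 ng/ml activin A; days 3-4 with 2% FCS plus activin A without compound. Fixed cells immunostained for Sox17 or HNF-3beta with Draq5 nuclear counterstain. Cell number and staining intensity quantified by high-content imaging, 12 fields/well.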

[1] = cell number in the wells analysed for HNF-3b expression
[2] = cell number in the wells analysed for SOX-17 expression

Row | Structure (SMILES) | Proliferative Response Fold over Wnt 3a/AA control [1] [fold] | Proliferative Response Fold over Wnt 3a/AA control [2] [fold]
1 | Cc1c[nH]c(-c2cnc(NCCNc3ccc(C#N)cn3)nc2-c2ccc(Cl)cc2Cl)n1 [Compound 221, 6-[(2-{[4-(2,4-Dichlorophenyl)-5-(4-methyl-1H-imidazol-2-yl)pyrimidin-2-yl]amino}ethyl)amino]pyridine-3-carbonitrile] | 1.348 | 1.375
2 | O=C1NC(=O)C(c2nn(CCO)c3ccccc23)=C1c1cn(-c2cncnc2)c2ccccc12 [Compound 226, 3-[1-(2-Hydroxyethyl)-1H-indazol-3-yl]-4-(1-pyrimidin-5-yl-1H-indol-3-yl)-1H-pyrrole-2,5-dione] | 0.4864 | 0.6342
3 | O=C1NC(=O)C(c2cn(CCCO)c3ncccc23)=C1c1cnccn1 [Compound 47, 3-[1-(3-Hydroxypropyl)-1H-pyrrolo[2,3-b]pyridin-3-yl]-4-pyrazin-2-yl-1H-pyrrole-2,5-dione] | 1.368 | 1.311
4 | CN(C)c1ccc(-n2cc(C3=C(c4nn(CCO)c5ccccc45)C(=O)NC3=O)c3cc(Cl)ccc32)cn1 [Compound 148, 3-{5-Chloro-1-[6-(dimethylamino)pyridin-3-yl]-1H-indol-3-yl}-4-[1-(2-hydroxyethyl)-1H-indazol-3-yl]-1H-pyrrole-2,5-dione] | 0.4156 | 0.7992
5 | O=C1NC(=O)C(c2cn(CCOCCOCCNC3CCCc4ccccc43)c3ccccc23)=C1c1cn(CCNC2CCCc3ccccc32)c2ccccc12 (stereo not drawn) [Compound 144, 3-{1-[2-(1,2,3,4-Tetrahydronaphthalen-1-ylamino)ethyl]-1H-indol-3-yl}-4-(1-{2-[(2-{[2-(1,2,3,4-tetrahydronaphthalen-1-ylamino)ethyl]oxy}ethyl)oxy]ethyl}-1H-indol-3-yl)-1H-pyrrole-2,5-dione] | 0.4345 | 0.5215
6 | O=C1NC(=O)C(c2cn(-c3cccnc3)c3ccccc23)=C1c1cn(CCO)c2ccccc12 [Compound 206, 3-[1-(2-Hydroxyethyl)-1H-indol-3-yl]-4-(1-pyridin-3-yl-1H-indol-3-yl)-1H-pyrrole-2,5-dione] | 1.232 | 1.423
7 | O=C1NC(=O)C2=C1Nc1cccc(c1)OCCC/C=C\CCCOc1cccc2c1 [Compound 233, (11Z)-8,9,10,13,14,15-Hexahydro-2,6:17,21-di(metheno)pyrrolo[3,4-h][1,15,7]dioxazacyclotricosine-22,24(1H,23H)-dione] | 0.2771 | 0.4223
8 | OCCC#Cc1nc(-c2ccc(F)cc2)c(-c2ccncc2)n1CCCc1ccccc1 [Compound 158, 4-[4-(4-Fluorophenyl)-1-(3-phenylpropyl)-5-pyridin-4-yl-1H-imidazol-2-yl]but-3-yn-1-ol] | 0.3852 | 0.4162
9 | COC(=O)c1cncc(-n2cc(C3=C(c4nn(CCO)c5ccccc45)C(=O)NC3=O)c3cc(Cl)ccc32)c1 [Compound 150, Methyl 5-(5-chloro-3-{4-[1-(2-hydroxyethyl)-1H-indazol-3-yl]-2,5-dioxo-2,5-dihydro-1H-pyrrol-3-yl}-1H-indol-1-yl)pyridine-3-carboxylate] | 0.4446 | 0.5195
10 | CN(CCO)CCCn1nc(C2=C(c3cn(-c4cccnc4)c4ccccc34)C(=O)NC2=O)c2ccccc21 [Compound 198, 3-(1-{3-[(2-Hydroxyethyl)(methyl)amino]propyl}-1H-indazol-3-yl)-4-(1-pyridin-3-yl-1H-indol-3-yl)-1H-pyrrole-2,5-dione] | 0.3093 | 0.2857
11 | CC(C)(O)CCn1nc(C2=C(c3cn(-c4cccnc4)c4ccccc34)C(=O)NC2=O)c2ccccc21 [Compound 223, 3-[1-(3-Hydroxy-3-methylbutyl)-1H-indazol-3-yl]-4-(1-pyridin-3-yl-1H-indol-3-yl)-1H-pyrrole-2,5-dione] | 0.6277 | 0.9484
12 | CN(C)c1cccc(-n2cc(C3=C(c4nn(CCO)c5ccccc45)C(=O)NC3=O)c3ccccc32)c1 [Compound 145, 3-{1-[3-(Dimethylamino)phenyl]-1H-indol-3-yl}-4-[1-(2-hydroxyethyl)-1H-indazol-3-yl]-1H-pyrrole-2,5-dione] | 0.1849 | 0.3207
